In article PMC9911399, “Two distinct binding modes provide the RNA-binding protein RbFox with extraordinary sequence specificity”:
Changes are numbered by the printed parent chain; changes in the protein carry UniProt numbers. The list shows a part of the results.

T1: RBFOX1 RRM RbFoxmut (Fox-RRM*) (Homo sapiens, UniProt Q9NWB1 109-208, R118D;E147R;N151S;E152T)
T1 sequence: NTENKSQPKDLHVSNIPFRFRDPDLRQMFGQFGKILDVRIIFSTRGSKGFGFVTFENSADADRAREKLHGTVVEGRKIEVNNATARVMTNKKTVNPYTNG

B1: AGAGCAC (DNA:RNA)
RNA: GGGAGACCGGAAUUCAGAUUGUCCAGAGCACUUAAAUCCCGUCGUAGCCACCA
DNA 1: CAATCTGAATTCCGGTCTCCC
DNA 2: TGGTGGCTACGACGGGATT
B2: UAGGGUU (DNA:RNA)
RNA: B1 RNA with A25U, G26A, A27G, C29G, A30U, C31U
DNA 1: CAATCTGAATTCCGGTCTCCC
DNA 2: TGGTGGCTACGACGGGATT
B3: AGACGUA (DNA:RNA)
RNA: B1 RNA with G28C, C29G, A30U, C31A
DNA 1: CAATCTGAATTCCGGTCTCCC
DNA 2: TGGTGGCTACGACGGGATT
B4: AAAAGAA (DNA:RNA)
RNA: B1 RNA with G26A, G28A, C29G, C31A
DNA 1: CAATCTGAATTCCGGTCTCCC
DNA 2: TGGTGGCTACGACGGGATT
B5: GGUACAU (DNA:RNA)
RNA: B1 RNA with A25G, A27U, G28A, C31U
DNA 1: CAATCTGAATTCCGGTCTCCC
DNA 2: TGGTGGCTACGACGGGATT
B6: CAAGGCU (DNA:RNA)
RNA: B1 RNA with A25C, G26A, C29G, A30C, C31U
DNA 1: CAATCTGAATTCCGGTCTCCC
DNA 2: TGGTGGCTACGACGGGATT
B7: UAGGGUC (DNA:RNA)
RNA: B1 RNA with A25U, G26A, A27G, C29G, A30U
DNA 1: CAATCTGAATTCCGGTCTCCC
DNA 2: TGGTGGCTACGACGGGATT
B8: GGCGGCU (DNA:RNA)
RNA: B1 RNA with A25G, A27C, C29G, A30C, C31U
DNA 1: CAATCTGAATTCCGGTCTCCC
DNA 2: TGGTGGCTACGACGGGATT
B9: GACAUCU (DNA:RNA)
RNA: GGGAGACCGGAAUUCAGAUUGUCCGACAUCUUUAAAUCCCGUCGUAGCCACCA
DNA 1: CAATCTGAATTCCGGTCTCCC
DNA 2: TGGTGGCTACGACGGGATT
B10: GAGGACC (DNA:RNA)
RNA: B9 RNA with C27G, A28G, U29A, U31C
DNA 1: CAATCTGAATTCCGGTCTCCC
DNA 2: TGGTGGCTACGACGGGATT
B11: AGGUCGA (DNA:RNA)
RNA: B1 RNA with A27G, G28U, A30G, C31A
DNA 1: CAATCTGAATTCCGGTCTCCC
DNA 2: TGGTGGCTACGACGGGATT
B12: CGUUGUC (DNA:RNA)
RNA: B1 RNA with A25C, A27U, G28U, C29G, A30U
DNA 1: CAATCTGAATTCCGGTCTCCC
DNA 2: TGGTGGCTACGACGGGATT
B13: AGCCGAA (DNA:RNA)
RNA: B1 RNA with A27C, G28C, C29G, C31A
DNA 1: CAATCTGAATTCCGGTCTCCC
DNA 2: TGGTGGCTACGACGGGATT
B14: UACAGGU (DNA:RNA)
RNA: B9 RNA with G25U, U29G, C30G
DNA 1: CAATCTGAATTCCGGTCTCCC
DNA 2: TGGTGGCTACGACGGGATT
B15: GACUCAG (DNA:RNA)
RNA: B9 RNA with A28U, U29C, C30A, U31G
DNA 1: CAATCTGAATTCCGGTCTCCC
DNA 2: TGGTGGCTACGACGGGATT
B16: ACAAAUU (DNA:RNA)
RNA: B1 RNA with G26C, G28A, C29A, A30U, C31U
DNA 1: CAATCTGAATTCCGGTCTCCC
DNA 2: TGGTGGCTACGACGGGATT
B17: AAACCCC (DNA:RNA)
RNA: B1 RNA with G26A, G28C, A30C
DNA 1: CAATCTGAATTCCGGTCTCCC
DNA 2: TGGTGGCTACGACGGGATT
B18: UAGGGAU (DNA:RNA)
RNA: B1 RNA with A25U, G26A, A27G, C29G, C31U
DNA 1: CAATCTGAATTCCGGTCTCCC
DNA 2: TGGTGGCTACGACGGGATT
B19: ACCGUAA (DNA:RNA)
RNA: B1 RNA with G26C, A27C, C29U, C31A
DNA 1: CAATCTGAATTCCGGTCTCCC
DNA 2: TGGTGGCTACGACGGGATT
B20: GCUUGAG (DNA:RNA)
RNA: B1 RNA with A25G, G26C, A27U, G28U, C29G, C31G
DNA 1: CAATCTGAATTCCGGTCTCCC
DNA 2: TGGTGGCTACGACGGGATT
B21: ACGAGUG (DNA:RNA)
RNA: B1 RNA with G26C, A27G, G28A, C29G, A30U, C31G
DNA 1: CAATCTGAATTCCGGTCTCCC
DNA 2: TGGTGGCTACGACGGGATT
B22: CUGAAAG (DNA:RNA)
RNA: B1 RNA with A25C, G26U, A27G, G28A, C29A, C31G
DNA 1: CAATCTGAATTCCGGTCTCCC
DNA 2: TGGTGGCTACGACGGGATT
B23: UAAUGGG (DNA:RNA)
RNA: B1 RNA with A25U, G26A, G28U, C29G, A30G, C31G
DNA 1: CAATCTGAATTCCGGTCTCCC
DNA 2: TGGTGGCTACGACGGGATT
B24: GAGCGUA (DNA:RNA)
RNA: B9 RNA with C27G, A28C, U29G, C30U, U31A
DNA 1: CAATCTGAATTCCGGTCTCCC
DNA 2: TGGTGGCTACGACGGGATT
B25: UCAAAGA (DNA:RNA)
RNA: B1 RNA with A25U, G26C, G28A, C29A, A30G, C31A
DNA 1: CAATCTGAATTCCGGTCTCCC
DNA 2: TGGTGGCTACGACGGGATT
B26: UUGUUCG (DNA:RNA)
RNA: B9 RNA with G25U, A26U, C27G, A28U, U31G
DNA 1: CAATCTGAATTCCGGTCTCCC
DNA 2: TGGTGGCTACGACGGGATT
B27: GUUCCGC (DNA:RNA)
RNA: B1 RNA with A25G, G26U, A27U, G28C, A30G
DNA 1: CAATCTGAATTCCGGTCTCCC
DNA 2: TGGTGGCTACGACGGGATT
B28: GACGAGC (DNA:RNA)
RNA: B9 RNA with A28G, U29A, C30G, U31C
DNA 1: CAATCTGAATTCCGGTCTCCC
DNA 2: TGGTGGCTACGACGGGATT
B29: UGCACCU (DNA:RNA)
RNA: B9 RNA with G25U, A26G, U29C
DNA 1: CAATCTGAATTCCGGTCTCCC
DNA 2: TGGTGGCTACGACGGGATT
B30: CUUCGAG (DNA:RNA)
RNA: B1 RNA with A25C, G26U, A27U, G28C, C29G, C31G
DNA 1: CAATCTGAATTCCGGTCTCCC
DNA 2: TGGTGGCTACGACGGGATT
B31: CUCCGCU (DNA:RNA)
RNA: B9 RNA with G25C, A26U, A28C, U29G
DNA 1: CAATCTGAATTCCGGTCTCCC
DNA 2: TGGTGGCTACGACGGGATT

These binders were tested against T1, RBFOX1 RRM RbFoxmut (Fox-RRM*) (assay: EMSA; HiTS-Eq, 1 nM pool, 10 min; buffer printed only for the single-RNA assays: 10 mM Tris pH 7.5, 150 mM NaCl, 3.4 mM EDTA, 0.001% NP-40, 30 C). Conditions: tags: His6 N-terminal (pET28a); label: 5' 32P.
How it was run: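 Purified RbFox RRM (wild type or mutant) was equilibrated for 10 min in 50 µL with 1 nM of a 5′-radiolabelled pool of RNA with 7 randomized nucleotides, its flanks annealed to DNA oligonucleotides, across increasing protein concentrations. Free RNA was separated by 8% native PAGE, excised, reverse-transcribed, PCR-barcoded and sequenced on an Illumina HiSeq 2500. Relative association constants came from read-count changes of each variant against the control reaction, normalised to the cognate motif.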
B1 was tested, and the binding signal was 0.106 KA relative to UGCAUGU.
For B2, the binding signal was 0.108 KA relative to UGCAUGU.
With B3 the binding signal was 0.115 KA relative to UGCAUGU.
For B4, the binding signal was 0.0861 KA relative to UGCAUGU.
In the case of B5, the binding signal is reported as 0.0796 KA relative to UGCAUGU.
With B6 the binding signal was 0.0653 KA relative to UGCAUGU.
B7 was tested, and the binding signal was 0.138 KA relative to UGCAUGU.
B8 was tested, and the binding signal was 0.0834 KA relative to UGCAUGU.
B9 was tested, and the binding signal was 0.0745 KA relative to UGCAUGU.
With B10 the binding signal was 0.072 KA relative to UGCAUGU.
For B11, the binding signal was 0.113 KA relative to UGCAUGU.
With B12 the binding signal was 0.31 KA relative to UGCAUGU.
With B13 the binding signal was 0.0891 KA relative to UGCAUGU.
In the case of B14, the binding signal is reported as 0.107 KA relative to UGCAUGU.
B15 was tested, and the binding signal was 0.0775 KA relative to UGCAUGU.
B16 was tested, and the binding signal was 0.0857 KA relative to UGCAUGU.
With B17 the binding signal was 0.0644 KA relative to UGCAUGU.
For B18, the binding signal was 0.0944 KA relative to UGCAUGU.
For B19, the binding signal was 0.117 KA relative to UGCAUGU.
B20 was tested, and the binding signal was 0.209 KA relative to UGCAUGU.
For B21, the binding signal was 0.202 KA relative to UGCAUGU.
For B22, the binding signal was 0.0652 KA relative to UGCAUGU.
B23 was tested, and the binding signal was 0.0846 KA relative to UGCAUGU.
For B24, the binding signal was 0.129 KA relative to UGCAUGU.
In the case of B25, the binding signal is reported as 0.0703 KA relative to UGCAUGU.
In the case of B26, the binding signal is reported as 0.463 KA relative to UGCAUGU.
With B27 the binding signal was 0.113 KA relative to UGCAUGU.
In the case of B28, the binding signal is reported as 0.083 KA relative to UGCAUGU.
With B29 the binding signal was 0.169 KA relative to UGCAUGU.
In the case of B30, the binding signal is reported as 0.113 KA relative to UGCAUGU.
For B31, the binding signal was 0.0979 KA relative to UGCAUGU.
